The other results are listed elsewhere or left out.
Experiments:
Experiment in all cases: glycan array binding signal (z-score within array); higher = stronger binding
Details in all cases: glycan notation: IUPAC condensed, linker removed
[1] = molecular target: Gal(b1-3)GlcNAc(b1-2)Man(a1-3)[Gal(b1-3)GlcNAc(b1-2)Man(a1-6)]Man(b1-4)GlcNAc(b1-4)[Fuc(a1-6)]GlcNAc
Procedure, shortened: (§1)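 Negative Z-scores can be read as non-binding. The Z-score is calculated within each array and then averaged across arrays of one protein sequence at different concentrations or buffers and across linkers. Arrays, 3228 in all, were curated from the Consortium for Functional Glycomics database and kept only where the protein sequence was available.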

[2] = molecular target: Gal(b1-3)GlcNAc(b1-2)Man(a1-3)[GlcNAc(b1-4)][Gal(b1-3)GlcNAc(b1-2)Man(a1-6)]Man(b1-4)GlcNAc(b1-4)GlcNAc
Procedure, shortened: as §1

[3] = molecular target: Gal(b1-3)GlcNAc(b1-2)[Gal(b1-3)GlcNAc(b1-6)]Man(a1-6)[Gal(b1-3)GlcNAc(b1-2)Man(a1-3)]Man(b1-4)GlcNAc(b1-4)GlcNAc
Procedure, shortened: as §1

[4] = molecular target: Gal(b1-3)GlcNAc(b1-3)Gal(b1-3)GlcNAc
Procedure, shortened: as §1

[5] = molecular target: Gal(b1-3)GlcNAc(b1-3)Gal(b1-4)Glc
Procedure, shortened: as §1

[6] = molecular target: Gal(b1-3)GlcNAc(b1-3)Gal(b1-4)GlcNAc
Procedure, shortened: as §1

[7] = molecular target: Gal(b1-3)GlcNAc(b1-3)Gal(b1-4)GlcNAc(b1-2)Man(a1-3)[Gal(b1-3)GlcNAc(b1-3)Gal(b1-4)GlcNAc(b1-2)Man(a1-6)]Man(b1-4)GlcNAc(b1-4)GlcNAc
Procedure, shortened: as §1

[8] = molecular target: Gal(b1-3)GlcNAc(b1-3)Gal(b1-4)GlcNAc(b1-2)[Gal(b1-3)GlcNAc(b1-3)Gal(b1-4)GlcNAc(b1-6)]Man(a1-6)[Gal(b1-3)GlcNAc(b1-3)Gal(b1-4)GlcNAc(b1-2)Man(a1-3)]Man(b1-4)GlcNAc(b1-4)[Fuc(a1-6)]GlcNAc
Procedure, shortened: as §1

[9] = molecular target: Gal(b1-3)GlcNAc(b1-3)Gal(b1-4)GlcNAc(b1-3)Gal(b1-4)GlcNAc(b1-2)[Gal(b1-3)GlcNAc(b1-3)Gal(b1-4)GlcNAc(b1-3)Gal(b1-4)GlcNAc(b1-6)]Man(a1-6)[Gal(b1-3)GlcNAc(b1-3)Gal(b1-4)GlcNAc(b1-3)Gal(b1-4)GlcNAc(b1-2)Man(a1-3)]Man(b1-4)GlcNAc(b1-4)[Fuc(a1-6)]GlcNAc
Procedure, shortened: as §1

[10] = molecular target: Gal(b1-3)GlcNAc(b1-3)Gal(b1-4)GlcNAc(b1-6)[Gal(b1-3)GlcNAc(b1-3)]Gal(b1-4)Glc
Procedure, shortened: as §1

[11] = molecular target: Gal(b1-3)GlcNAc(b1-3)Gal(b1-4)[Fuc(a1-3)]GlcNAc
Procedure, shortened: as §1

[12] = molecular target: Gal(b1-3)GlcNAc(b1-3)Gal(b1-4)[Fuc(a1-3)]GlcNAc(b1-6)[Gal(b1-3)GlcNAc(b1-3)]Gal(b1-4)Glc
Procedure, shortened: as §1

[13] = molecular target: Gal(b1-3)GlcNAc(b1-3)GalNAc
Procedure, shortened: as §1

[14] = molecular target: Gal(b1-3)GlcNAc(b1-6)Gal(b1-4)GlcNAc
Procedure, shortened: as §1

[15] = molecular target: Gal(b1-3)GlcNAc(b1-6)GalNAc
Procedure, shortened: as §1

[16] = molecular target: Gal(b1-3)GlcNAc(b1-6)[Gal(b1-3)]GalNAc
Procedure, shortened: as §1

Gal(b1-3)GlcNAc6S = molecular target: Gal(b1-3)GlcNAc6S
Procedure, shortened: as §1

[17] = molecular target: Gal(b1-3)[Fuc(a1-4)]GlcNAc
Procedure, shortened: as §1

[18] = molecular target: Gal(b1-3)[Fuc(a1-4)]GlcNAc(b1-2)Man
Procedure, shortened: as §1

[19] = molecular target: Gal(b1-3)[Fuc(a1-4)]GlcNAc(b1-2)Man(a1-3)[Gal(b1-3)[Fuc(a1-4)]GlcNAc(b1-2)Man(a1-6)]Man(b1-4)GlcNAc(b1-4)[Fuc(a1-6)]GlcNAc
Procedure, shortened: as §1

[20] = molecular target: Gal(b1-3)[Fuc(a1-4)]GlcNAc(b1-3)Gal(b1-3)[Fuc(a1-4)]GlcNAc
Procedure, shortened: as §1

[21] = molecular target: Gal(b1-3)[Fuc(a1-4)]GlcNAc(b1-3)Gal(b1-4)[Fuc(a1-3)]GlcNAc
Procedure, shortened: as §1

[22] = molecular target: Gal(b1-3)[Fuc(a1-4)]GlcNAc(b1-6)GalNAc
Procedure, shortened: as §1

[23] = molecular target: Gal(b1-3)[GlcNAc(b1-6)]GalNAc
Procedure, shortened: as §1

[24] = molecular target: Gal(b1-3)[Neu5Ac(a2-6)]GalNAc
Procedure, shortened: as §1

[25] = molecular target: Gal(b1-3)[Neu5Ac(a2-6)]GlcNAc(b1-4)Gal(b1-4)Glc
Procedure, shortened: as §1

[26] = molecular target: Gal(b1-3)[Neu5Ac(b2-6)]GalNAc
Procedure, shortened: as §1

Gal(b1-4)Gal = molecular target: Gal(b1-4)Gal
Procedure, shortened: as §1

[27] = molecular target: Gal(b1-4)GalNAc(a1-3)[Fuc(a1-2)]Gal(b1-4)GlcNAc
Procedure, shortened: as §1

[28] = molecular target: Gal(b1-4)GalNAc(b1-3)[Fuc(a1-2)]Gal(b1-4)GlcNAc
Procedure, shortened: as §1

Gal(b1-4)Glc = molecular target: Gal(b1-4)Glc
Procedure, shortened: as §1

Gal(b1-4)Glc6S = molecular target: Gal(b1-4)Glc6S
Procedure, shortened: as §1

Gal(b1-4)GlcNAc = molecular target: Gal(b1-4)GlcNAc
Procedure, shortened: as §1

[29] = molecular target: Gal(b1-4)GlcNAc(a1-6)Gal(b1-4)GlcNAc
Procedure, shortened: as §1

Gal(b1-4)GlcNAc(b1-2)Man = molecular target: Gal(b1-4)GlcNAc(b1-2)Man
Procedure, shortened: as §1

[30] = molecular target: Gal(b1-4)GlcNAc(b1-2)Man(a1-3)Man(b1-4)GlcNAc(b1-4)GlcNAc
Procedure, shortened: as §1

[31] = molecular target: Gal(b1-4)GlcNAc(b1-2)Man(a1-3)[Gal(b1-4)GlcNAc(b1-2)Man(a1-6)]Man(b1-4)GlcNAc(b1-4)GlcNAc
Procedure, shortened: as §1

B1: PX14367B-bvu-516-23-516 (Bacteroides vulgatus) (protein)
chain: LDTIPTTYVDAGSVFGKTGDAEKVLNGGWNYLMETFNSYANPGYGAMLRANDAMGSDVVLNSKYGFRTHNEFSAIYGKGGTNTLSWLLAYRVINDCNGVLDNIDAAEGTQADRNRIKGQALALRGFLYLHLASCYSFAIDKDPDAVCAPIYTQSTDETIAAEGKPASSVSEVYAQSINDLEEALELIPETYVRDAKHKIDNEVVLGILSRACLYARQWEKAKTYSDKLLAKDNYLMTESEYKAGFNSVDNKEWIWGHAQTNDQSNASYQFHYLDTTTKGSYYYSFNVDPYFRDLFEDGDYRKEMLFWATDPGADVESAAYVWMRNSKFRFRDIENQLGDIVLMRVAEIYLINAEAKAHLNDPDAINKLNDLKTARGAKTIHTNLSQQDLLETIWLERRKELWGEGFSLIDIIRNQQTVVRNAYPEGPIDYIYTDENGQTHTLKKKTQGHRFFNFPDKSAFCPNSKYYLYRITDSEELANKNLYKDHPKLSIYTK
- glycan array binding signal (z-score) [1]: -0.248
- glycan array binding signal (z-score) [2]: -0.246
- glycan array binding signal (z-score) [3]: 0.264
- glycan array binding signal (z-score) [4]: -0.344
- glycan array binding signal (z-score) [5]: -0.328
- glycan array binding signal (z-score) [6]: -0.336
- glycan array binding signal (z-score) [7]: 0.694
- glycan array binding signal (z-score) [8]: 4.21
- glycan array binding signal (z-score) [9]: 1.87
- glycan array binding signal (z-score) [10]: -0.331
- glycan array binding signal (z-score) [11]: -0.176
- glycan array binding signal (z-score) [12]: -0.355
- glycan array binding signal (z-score) [13]: 0.725
- glycan array binding signal (z-score) [14]: -0.218
- glycan array binding signal (z-score) [15]: 2.79
- glycan array binding signal (z-score) [16]: -0.241
- glycan array binding signal (z-score) (Gal(b1-3)GlcNAc6S): -0.243
- glycan array binding signal (z-score) [17]: -0.307
- glycan array binding signal (z-score) [18]: -0.255
- glycan array binding signal (z-score) [19]: -0.272
- glycan array binding signal (z-score) [20]: -0.235
- glycan array binding signal (z-score) [21]: -0.263
- glycan array binding signal (z-score) [22]: 4.48
- glycan array binding signal (z-score) [23]: -0.38
- glycan array binding signal (z-score) [24]: -0.148
- glycan array binding signal (z-score) [25]: -0.276
- glycan array binding signal (z-score) [26]: -0.38
- glycan array binding signal (z-score) (Gal(b1-4)Gal): 0.034
- glycan array binding signal (z-score) [27]: -0.37
- glycan array binding signal (z-score) [28]: -0.345
- glycan array binding signal (z-score) (Gal(b1-4)Glc): -0.33
- glycan array binding signal (z-score) (Gal(b1-4)Glc6S): -0.083
- glycan array binding signal (z-score) (Gal(b1-4)GlcNAc): -0.302
- glycan array binding signal (z-score) [29]: -0.357
- glycan array binding signal (z-score) (Gal(b1-4)GlcNAc(b1-2)Man): -0.225
- glycan array binding signal (z-score) [30]: -0.302
- glycan array binding signal (z-score) [31]: -0.219

Reference: the supplement of paper PMC8728848
